Hit rate of the full screen: of about 150,000 compounds, about 540 (0.36%) showed an effect of 50% or more. This is one part of the list.

This assay concerns Plasmodium falciparum. Description: Primary screen in NF54 nanoGlo assay, in single point, at 2uM, 72h; a lower Z score goes with more inhibition. The class given is functional, Erythrocyte. As to conditions: timepoint 72 hour.
With `Cc1nc(CCNC(=O)c2ccoc2C)cs1`, the “% Inhibition” value was -13% and the Z score is 2.25.

For the molecule `C[C@H](Nc1ncccn1)c1cccc(-n2cccn2)c1`, the “% Inhibition” value was found to be 2% and the Z score is on record as -0.32.

On to `Cc1cccc(NC(=O)N2CCC3(CC2)Oc2ccccc2C(=O)N3Cc2ccccc2F)c1`, for which the “% Inhibition” value is reported as 2% and the Z score is on record as -0.4.

`CCCOc1ccc([C@H](C)N)cc1OC`: the “% Inhibition” value was -8% and the Z score is reported as 1.12.

As to `Cc1ccc2c(c1C)NC(=O)C21NC(C(C)O)[C@H]2C(=O)N(Cc3ccc4c(c3)OCO4)C(=O)[C@H]21` (stereo partly specified), the “% Inhibition” value is -12% and the Z score was determined as 1.55.

Take `CCN(c1nc(C)nc2c1cnn2C)[C@H]1CCNC1=O`: the “% Inhibition” value is -2% and the Z score turned out to be 0.32.

`CCOc1cccc(Cc2noc([C@@H]3CCCN3Cc3ccc(F)cc3)n2)n1`: the “% Inhibition” value is given as -7% and the Z score turned out to be 1.05.

Turning to `O=C(NS(=O)(=O)Cc1c(F)cccc1F)c1csc([C@@H]2CCCO2)n1`, the “% Inhibition” value is recorded as -7% and the Z score came to 1.08.

On to `O=C(NCc1ccc(Cl)cc1)N1C[C@H]2CC[C@@H](C1)[C@H]2O`, for which the “% Inhibition” value is recorded as -8% and the Z score is on record as 0.9.

On to `OC1CCCC1C1CCCN1c1cncc(Br)c1` (stereo unspecified), for which the “% Inhibition” value is on record as -6% and the Z score was determined as 0.64.

Regarding `Cc1cc(O)c(C(=O)NCc2ccsc2)cn1`, the “% Inhibition” value is -9% and the Z score worked out at 1.36.

`CC1CC(c2ccccc2)CN1CCCn1ccnc1` (stereo unspecified): the “% Inhibition” value is listed as -3% and the Z score worked out at 0.31.

As to `CCOc1ccc(-c2nc(CN(c3ccccc3OCC)S(=O)(=O)c3cccs3)c(C)o2)cc1`, the “% Inhibition” value is -8% and the Z score came out at 1.2.

Consider `COc1ccc(S(=O)(=O)Nc2cnc3c(cnn3C(C)C)c2)cc1OC`, for which the “% Inhibition” value was -8% and the Z score is recorded as 1.05.

With `CNC(=O)[C@@H]1C[C@H](N)CN1C(=O)C1(Nc2ccc(C)c(C)c2)CCCCC1`, the “% Inhibition” value is recorded as -7% and the Z score came out at 1.34.

As to `O=C(CNC(=O)[C@H]1CC[C@H](CNS(=O)(=O)c2ccc(F)cc2)CC1)NCCO`, the “% Inhibition” value is given as -10% and the Z score was 1.03.

For `CN(CCC(=O)Nc1ccc2c(c1)OCCO2)Cc1ccc(F)cc1`, the “% Inhibition” value is listed as -10% and the Z score is recorded as 1.13.

In the case of `CC(C)CN[C@H]1[C@H](O)[C@@H](N2CCC(Cc3ccccc3)CC2)[C@@H]2OC[C@H]1O2`, the “% Inhibition” value is given as -9% and the Z score is on record as 1.21.

`CN(CCc1noc(C2CC2)n1)c1ncncc1C(=O)O`: the “% Inhibition” value was -2% and the Z score worked out at 0.32.

As for `Cc1ccc(NC(=O)N2CCC(O)(c3c(F)cccc3F)CC2)nc1`, the “% Inhibition” value is -21% and the Z score was 2.81.

As for `COC(=O)c1cccc(S(=O)(=O)Nc2nnc3ccccn23)c1C`, the “% Inhibition” value is reported as 3% and the Z score is -0.46.

As to `Cc1nc(C)c(-c2cc(C(=O)NCc3cccnc3)[nH]n2)s1`, the “% Inhibition” value is on record as -6% and the Z score worked out at 0.77.

On to `COc1nn(C)cc1CNC(=O)[C@@H]1CCc2cccnc21`, for which the “% Inhibition” value is recorded as -4% and the Z score amounted to 0.46.

As usually defined, the % Inhibition is the change of the read-out against control, counted positive when it falls.
